Assay results as given in the supplement of paper PMC8813932.
Where a name gives a salt, the structure may show the parent alone. ± gives the standard deviation of the averaged measurements. The list shows a part of the results. Single values are uncertain, as repeats are few or missing.

Tests used:
Experiment in all cases: log2 surviving fraction relative to plate median (drug vs vehicle, or drug+dl922-947 vs dl922-947 alone); ovarian cancer lines: OVCAR4 is platinum-sensitive while Ov4Cis resists cisplatin and Ov4Carbo carboplatin; higher = more cell survival
Conditions in all cases: compound concentration: 10 uM, 192 h
OVCAR4 = system: OVCAR4
Ov4Carbo = system: Ov4Carbo
Ov4Cis = system: Ov4Cis
[1] = dl922-947 oncolytic adenovirus co-treatment: MOI 10
[2] = dl922-947 oncolytic adenovirus co-treatment: none

| Structure (SMILES) | log2 surviving fraction (OVCAR4; [1]) | log2 surviving fraction (OVCAR4; [2]) | log2 surviving fraction (Ov4Carbo; [1]) | log2 surviving fraction (Ov4Carbo; [2]) | log2 surviving fraction (Ov4Cis; [1]) | log2 surviving fraction (Ov4Cis; [2]) |
| --- | --- | --- | --- | --- | --- | --- |
| NNc1nncc2ccccc12 [Hydralazine hydrochloride] | 0.379 ± 1.1 | 1.34 ± 0.81 | 1.25 | 0.608 | 1.18 | 0.531 |
| CCC(COC(=O)c1cc(OC)c(OC)c(OC)c1)(c1ccccc1)N(C)C (stereo not given) [Trimebutine] | 0.0823 ± 0.31 | -0.333 ± 0.079 | -0.042 | -0.781 | -0.0556 | 0.272 |
| Cc1ncc([N+](=O)[O-])n1CCO [Metronidazole (Flagyl)] | 0.239 ± 0.64 | -0.179 ± 0.26 | 0.405 | -2.52 | 0.512 | -0.0657 |
| COc1ccc(C(CN(C)C)C2(O)CCCCC2)cc1 (stereo not given) [Venlafaxine] | 0.23 ± 0.029 | 0.586 ± 0.32 | -0.822 | 0.892 | 0.165 | 0.522 |
| CCCCc1ncc(/C=C(\Cc2cccs2)C(=O)O)n1Cc1ccc(C(=O)O)cc1 [Eprosartan Mesylate] | -0.259 ± 0.73 | -0.272 ± 0.49 | 0.739 | -0.341 | 1.29 | 0.323 |
| O=c1ccc2ccccc2o1 [Coumarin] | 0.453 ± 1 | 0.616 ± 0.07 | 0.327 | 0.77 | -0.0633 | 0.472 |
| OCC(O)CN1CCN(c2ccccc2)CC1 (stereo not given) [Dropropizine] | 0.635 ± 0.037 | 0.931 ± 0.38 | 0.502 | -5.38 | 0.778 | 1.1 |
| CCC(=O)OCC(=O)[C@@]1(OC(=O)CC)[C@@H](C)C[C@H]2[C@@H]3CCC4=CC(=O)C=C[C@]4(C)[C@@]3(F)[C@@H](O)C[C@@]21C [Betamethasone Dipropionate (Diprolene)] | 0.778 ± 0.2 | -0.933 ± 1.3 | 0.713 | -0.0884 | 0.888 | -1.4 |
| COc1c(N2CCNC(C)C2)c(F)cc2c(=O)c(C(=O)O)cn(C3CC3)c12 (stereo not given) [Gatifloxacin] | -0.621 ± 0.27 | -0.705 ± 0.97 | -0.518 | -0.166 | -1.14 | -0.497 |
| Cc1c(-c2ccccc2)oc2c(C(=O)OCCN3CCCCC3)cccc2c1=O [Flavoxate HCl] | 0.906 ± 0.7 | 0.954 ± 0.49 | -0.492 | 1.83 | 0.547 | -0.0866 |
| CN1Cc2c(N)cccc2C(c2ccccc2)C1 (stereo not given) [Nomifensine Maleate] | -1.38 ± 0.37 | -1.1 ± 0.82 | -2.14 | -0.62 | -1.73 | -0.42 |
| CN1CCc2cc3c(cc2C1O)OCO3 (stereo not given) [Hydrastinine HCl] | 0.697 ± 0.51 | -0.23 ± 0.73 | -1.86 | 0.778 | 0.0503 | 1.16 |
| CCn1cc(C(=O)O)c(=O)c2cc(F)c(N3CCN(C)CC3)cc21 [Pefloxacin mesylate] | -0.123 ± 1.2 | -0.552 ± 0.19 | -0.432 | 0.826 | -1.25 | 0.217 |
| c1cc(CN2CCCNCCNCCCNCC2)ccc1CN1CCCNCCNCCCNCC1 [Plerixafor (AMD3100)] | 0.707 ± 0.81 | -0.0791 ± 1.1 | 0.494 | -0.219 | 0.345 | -0.14 |
| CCCC(C(=O)OCCN(CC)CC)(c1ccccc1)c1ccccc1 [Proadifen HCl] | -1.06 ± 0.59 | -1.67 ± 0.7 | -2.83 | -1.72 | -3.44 | -1.12 |
| CCOC(=O)c1c(C)n(C)c2ccc(O)cc12 [Mecarbinate] | 1.23 ± 0.57 | 0.434 ± 0.37 | -0.303 | -0.0563 | 0.236 | 1.09 |
| Clc1ccc(C(Cn2ccnc2)OCc2ccc(Sc3ccccc3)cc2)c(Cl)c1 (stereo not given) [Fenticonazole nitrate] | -2.1 ± 0.65 | -2.69 ± 0.54 | -2.17 | -1.35 | -2.04 | -2.76 |
| CN1CCN2c3ccccc3Cc3ccccc3C2C1 (stereo not given) [Mianserin hydrochloride] | -0.294 ± 0.88 | -0.765 ± 0.45 | -1.36 | -1.33 | -1.09 | -1.42 |
| CCN1CC(CCN2CCOCC2)C(c2ccccc2)(c2ccccc2)C1=O (stereo not given) [Doxapram HCl] | 0.423 ± 0.59 | -0.00337 ± 0.052 | 0.384 | 0.393 | 0.607 | -0.114 |
| Cc1cc(C#N)cc(C)c1Oc1nc(Nc2ccc(C#N)cc2)nc(N)c1Br [Etravirine (TMC125)] | -1.31 ± 1.1 | -2.08 ± 1.3 | -0.392 | -3.73 | -2 | -5.18 |
| CC(C)N(CCC(C(N)=O)(c1ccccc1)c1ccccn1)C(C)C (stereo not given) [Disopyramide Phosphate] | 0.471 ± 0.1 | 0.257 ± 0.56 | 0.53 | -0.149 | 0.366 | 0.439 |
| CC(C)C[C@H]1C(=O)N2CCC[C@H]2[C@]2(O)O[C@](NC(=O)[C@@H]3C=C4c5cccc6[nH]c(Br)c(c56)C[C@H]4N(C)C3)(C(C)C)C(=O)N12 [Bromocriptine Mesylate] | -0.387 ± 1.2 | -1.4 ± 1.7 | -0.914 | -5.78 | 0.0116 | -2.64 |
| N#CC(c1ccc(Cl)cc1)c1c(Cl)cc(-n2ncc(=O)[nH]c2=O)cc1Cl (stereo not given) [Diclazuril] | -0.301 ± 0.11 | -0.919 ± 0.17 | -0.125 | -0.532 | -0.361 | -1.6 |
| C=CC1=C(C(=O)O)N2C(=O)[C@@H](NC(=O)/C(=N\O)c3csc(N)n3)[C@H]2SC1 [Cefdinir (Omnicef)] | 0.171 ± 0.58 | -0.65 ± 0.042 | 0.532 | 0.547 | 0.117 | 0.488 |
| COc1nc(N)nc2c1ncn2[C@@H]1O[C@H](CO)[C@@H](O)[C@@H]1O [Nelarabine (Arranon)] | 0.124 ± 0.93 | 1.43 ± 0.12 | 0.987 | 1.26 | 0.262 | 0.516 |
